# The list shows a part of the results. Most values come without repeats; read them as rough.
# How the values were obtained:
# Assay in all cases: cell count relative to DMSO control; melanoma cells; higher = more viable cells
# Conditions in all cases: library dose: standard library concentration; 72 h
# G361 = test system: G361
# IPC-298 = test system: IPC-298
# IST-MEL1 = test system: IST-MEL1
# LB2518-MEL = test system: LB2518-MEL
# LOXIMVI = test system: LOXIMVI
# MEL-HO = test system: MEL-HO
# MZ2-MEL = test system: MZ2-MEL
# MeWo = test system: MeWo
# RPMI7951 = test system: RPMI7951
# RVH-421 = test system: RVH-421
# SkMel28 = test system: SkMel28
# SkMel2 = test system: SkMel2
# SkMel30 = test system: SkMel30
# SkMel5 = test system: SkMel5
# UACC257 = test system: UACC257
# UACC62 = test system: UACC62
# WM115 = test system: WM115
# WM1716 = test system: WM1716
# WM3526 = test system: WM3526
# 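Note: cells treated in 1,536-well plates, then fixed and DAPI-stained, with nuclei counted from automated high-throughput microscope images.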
SMILES,cell count (G361),cell count (IPC-298),cell count (IST-MEL1),cell count (LB2518-MEL),cell count (LOXIMVI),cell count (MEL-HO),cell count (MZ2-MEL),cell count (MeWo),cell count (RPMI7951),cell count (RVH-421),cell count (SkMel28),cell count (SkMel2),cell count (SkMel30),cell count (SkMel5),cell count (UACC257),cell count (UACC62),cell count (WM115),cell count (WM1716),cell count (WM3526)
"O=C(Nc1cc(C(F)(F)F)cc(C(F)(F)F)c1)c1cc(Cl)ccc1O + O=C(O)C(=O)Nc1sc2c(c1C(=O)O)CCNC2 [TCS401] (first compound 0.08 µM, partner dose 8.33333 µM)",103%,98.9%,105%,89.9%,140%,91.4%,96%,118%,131%,118%,108%,105%,152%,80.8%,85.2%,128%,88.1%,98.2%,105%
"O=C(O)[C@@H]1[O][Sb](=[O])([O][Sb]2(=[O])[O][C@H]([C@H](O)CO)[C@H](O)[C@H](C(=O)O)[O]2)[O][C@H]([C@H](O)CO)[C@@H]1O (some centres undefined) [stibogluconate] + O=C(O)C(=O)Nc1sc2c(c1C(=O)O)CCNC2 [TCS401] (first compound 10 µM, partner dose 8.33333 µM)",96.7%,94.3%,107%,102%,88.2%,81.8%,100%,103%,120%,120%,99.8%,102%,158%,82.8%,90.5%,121%,92.1%,80.7%,108%
"O=C(Nc1cc(C(F)(F)F)cc(C(F)(F)F)c1)c1cc(Cl)ccc1O + COc1ccc(COc2ccc(Cc3cnc(N)nc3N)cc2OC)cc1 [GW2580] (first compound 0.08 µM, partner dose 5 µM)",79.9%,81.4%,89.6%,117%,114%,84.9%,87%,97.4%,119%,99.6%,126%,94.1%,88.5%,68.6%,78.5%,99.5%,88.3%,102%,100%
"O=C(O)c1ccc2c(c1)nc(Nc1cccc(Cl)c1)c1ccncc12 + O=S(=O)(c1ccccc1)N(CC(F)(F)F)c1ccc(C(O)(C(F)(F)F)C(F)(F)F)cc1 [T0901317] (first compound 2 µM, partner dose 7 µM)",48.4%,80.8%,76.3%,109%,75.9%,61.8%,72.8%,61.7%,50.2%,95%,53.2%,67.3%,66.6%,48.1%,79.4%,75.5%,81.2%,85.9%,56.5%
"O=C(O)c1ccc2c(c1)nc(Nc1cccc(Cl)c1)c1ccncc12 + COc1ccc2c(c1)CCC1C2CCC2(C)C(NCCCCCCN3C(=O)C=CC3=O)CCC12 [U73122] (first compound 2 µM, partner dose 2 µM)",44.3%,78.2%,75.3%,75%,39.9%,57.6%,69.7%,68.4%,36%,52.6%,42.6%,84.5%,73.8%,83.4%,84.4%,48.8%,78.4%,69.7%,61%
"O=C(O)[C@@H]1[O][Sb](=[O])([O][Sb]2(=[O])[O][C@H]([C@H](O)CO)[C@H](O)[C@H](C(=O)O)[O]2)[O][C@H]([C@H](O)CO)[C@@H]1O (some centres undefined) [stibogluconate] + Cc1cc([N+](=O)[O-])ccc1NS(=O)(=O)c1cc(Cl)ccc1Cl [FH535] (first compound 10 µM, partner dose 5 µM)",36.9%,40.5%,51.1%,65.3%,72.4%,45.1%,74.7%,83.1%,93.2%,54.6%,47.7%,75.3%,87%,84.4%,65.9%,84.4%,80.2%,78.9%,65%
"O=C(Nc1cc(C(F)(F)F)cc(C(F)(F)F)c1)c1cc(Cl)ccc1O + CCc1ccc(CCOc2ccc(CC3SC(=O)NC3=O)cc2)nc1 [pioglitazone] (first compound 0.08 µM, partner dose 10 µM)",115%,105%,92.8%,105%,85.4%,92.5%,106%,97.9%,96.6%,107%,88%,92.4%,108%,72.7%,97.2%,116%,88.5%,105%,114%
"O=C(O)[C@@H]1[O][Sb](=[O])([O][Sb]2(=[O])[O][C@H]([C@H](O)CO)[C@H](O)[C@H](C(=O)O)[O]2)[O][C@H]([C@H](O)CO)[C@@H]1O (some centres undefined) [stibogluconate] + COC(=O)c1sccc1S(=O)(=O)Nc1ccc(Nc2ccccc2)cc1OC [GSK0660] (first compound 10 µM, partner dose 5 µM)",88.8%,93.8%,100%,108%,146%,90.8%,76.7%,102%,111%,115%,78.2%,97.3%,98.5%,89.8%,96.5%,105%,119%,105%,97.2%
"O=C(Nc1cc(C(F)(F)F)cc(C(F)(F)F)c1)c1cc(Cl)ccc1O + Oc1cc(-c2nc(-c3ccccc3)[nH]c2-c2ccncc2)ccc1Cl [L779450] (first compound 0.08 µM, partner dose 1 µM)",52.8%,76.2%,79.8%,105%,77.4%,71.9%,90.4%,80.4%,86.8%,67.9%,51%,29.9%,96.4%,68.6%,95%,50.8%,59.6%,73.8%,57%
"O=C(O)c1ccc2c(c1)nc(Nc1cccc(Cl)c1)c1ccncc12 + COc1ccc(-c2ccc3c(N4CCOCC4)nc(N4C[C@@H](C)O[C@@H](C)C4)nc3n2)cc1CO [KU0063794] (first compound 2 µM, partner dose 0.1 µM)",54.7%,61.8%,84.1%,98.3%,49%,58.6%,73.7%,74%,69.2%,81.9%,60.6%,71.2%,77.2%,62%,98.2%,80.6%,69.9%,88.2%,63.8%
"O=C(Nc1cc(C(F)(F)F)cc(C(F)(F)F)c1)c1cc(Cl)ccc1O + O=C(Nc1ccccc1)c1cc([N+](=O)[O-])ccc1Cl [GW9662] (first compound 0.08 µM, partner dose 10 µM)",68.6%,83.6%,82.6%,81.9%,142%,80.7%,79.3%,75.4%,84.4%,108%,86.5%,108%,78.8%,92.6%,71.3%,67.4%,81%,86.6%,84.9%

# Reference: the supplement of paper PMC4604168 (melanoma cell lines)
